# Data: the supplement of paper PMC4604168 (melanoma cell lines)
# Some of the results follow. Most values come without repeats; read them as rough.
# Test system: COLO829
# Assay: cell count relative to DMSO control; melanoma cells; higher = more viable cells
# Details: library dose: standard library concentration; 72 h
# 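Also: cells treated in 1,536-well plates, then fixed and DAPI-stained, with nuclei counted from automated high-throughput microscope images.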
row,Compound,cell count [%]
1,"O=C(O)[C@@H]1[O][Sb](=[O])([O][Sb]2(=[O])[O][C@H]([C@H](O)CO)[C@H](O)[C@H](C(=O)O)[O]2)[O][C@H]([C@H](O)CO)[C@@H]1O (some centres undefined) [stibogluconate] + CCCCCCCCCCCC1=C(O)C(=O)C=C(O)C1=O [Embelin] (first compound 10 µM, partner dose 6 µM)",75.4
2,"Cn1nnc2c(C(N)=O)ncn2c1=O [temozolomide] + N#Cc1c(O)c2c(-c3ccc(-c4ccccc4O)cc3)csc2[nH]c1=O [A769662] (first compound 10 µM, partner dose 10 µM)",91.8
3,"Cc1cc(N2CCOCC2)cc2[nH]c(-c3c(NC[C@@H](O)c4cccc(Cl)c4)cc[nH]c3=O)nc12 + Cc1cc([N+](=O)[O-])ccc1NS(=O)(=O)c1cc(Cl)ccc1Cl [FH535] (first compound 1 µM, partner dose 5 µM)",75.5
4,"O=C(Nc1cc(C(F)(F)F)cc(C(F)(F)F)c1)c1cc(Cl)ccc1O + COc1cc2ncnc(Nc3ccc(Oc4ccccc4)cc3)c2cc1OC [SrcI1] (first compound 0.08 µM, partner dose 10 µM)",133
